# The list shows a part of the results.
# B1: SefD (Salmonella enterica), Q9L6K6 (protein)
# chain: GAYIIRGQNNSAHKLRIRIGGEDWQPDNSGIGMVSHSDFTNEFNIYYFGNGDIPVDTYLISIYATEIEL
# Key:
# Experiment in all cases: glycan array binding signal (z-score within array); higher = stronger binding
# Conditions in all cases: glycan notation: IUPAC condensed, linker removed
# [1] = target: Man(a1-2)Man(a1-3)[Man(a1-6)]Man(a1-6)[Man(a1-2)Man(a1-3)]Man(b1-4)GlcNAc(b1-4)GlcNAc
# In short: (§1)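 The Consortium for Functional Glycomics database supplied 3228 glycan arrays, of which those lacking an available protein sequence were dropped. The binding signal, a within-array Z-score, was averaged across arrays of the same protein sequence and across linkers. Negative scores can be read as non-binding.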
# [2] = target: Man(a1-2)Man(a1-6)[Man(a1-3)]Man(a1-6)[Man(a1-2)Man(a1-2)Man(a1-3)]Man
# In short: as §1
# [3] = target: Man(a1-2)Man(a1-6)[Man(a1-3)]Man(a1-6)[Man(a1-2)Man(a1-2)Man(a1-3)]Man(b1-4)GlcNAc(b1-4)GlcNAc
# In short: as §1
# Man(a1-3)[Man(a1-6)]Man = target: Man(a1-3)[Man(a1-6)]Man
# In short: as §1
# [4] = target: Man(a1-3)[Man(a1-6)]Man(a1-6)[Man(a1-2)Man(a1-3)]Man(b1-4)GlcNAc(b1-4)GlcNAc
# In short: as §1
# [5] = target: Man(a1-3)[Man(a1-6)]Man(a1-6)[Man(a1-3)]Man
# In short: as §1
# [6] = target: Man(a1-3)[Man(a1-6)]Man(a1-6)[Man(a1-3)]Man(b1-4)GlcNAc(b1-4)GlcNAc
# In short: as §1
# [7] = target: Man(a1-3)[Man(a1-6)]Man(b1-4)GlcNAc(b1-4)GlcNAc
# In short: as §1
# Man(a1-6)Man = target: Man(a1-6)Man
# In short: as §1
# Man(b1-4)GlcNAc = target: Man(b1-4)GlcNAc
# In short: as §1
# Neu5Ac(a2-3)Gal = target: Neu5Ac(a2-3)Gal
# In short: as §1
# [8] = target: Neu5Ac(a2-3)Gal(b1-3)GalNAc
# In short: as §1
# [9] = target: Neu5Ac(a2-3)Gal(b1-3)GalNAc(b1-3)Gal(a1-4)Gal(b1-4)Glc
# In short: as §1
# [10] = target: Neu5Ac(a2-3)Gal(b1-3)GalNAc(b1-4)[Neu5Ac(a2-3)]Gal(b1-4)Glc
# In short: as §1
# [11] = target: Neu5Ac(a2-3)Gal(b1-3)GalNAc(b1-4)[Neu5Ac(a2-8)Neu5Ac(a2-3)]Gal(b1-4)Glc
# In short: as §1
# [12] = target: Neu5Ac(a2-3)Gal(b1-3)GalNAc6S
# In short: as §1
# [13] = target: Neu5Ac(a2-3)Gal(b1-3)GlcNAc
# In short: as §1
# [14] = target: Neu5Ac(a2-3)Gal(b1-3)GlcNAc(b1-3)Gal(b1-3)GlcNAc
# In short: as §1
# [15] = target: Neu5Ac(a2-3)Gal(b1-3)GlcNAc(b1-3)Gal(b1-4)GlcNAc
# In short: as §1
# [16] = target: Neu5Ac(a2-3)Gal(b1-3)GlcNAc(b1-3)GalNAc
# In short: as §1
# [17] = target: Neu5Ac(a2-3)Gal(b1-3)GlcNAc6S
# In short: as §1
# [18] = target: Neu5Ac(a2-3)Gal(b1-3)[Fuc(a1-4)]GlcNAc
# In short: as §1
# [19] = target: Neu5Ac(a2-3)Gal(b1-3)[Fuc(a1-4)]GlcNAc(b1-3)Gal(b1-3)[Fuc(a1-4)]GlcNAc
# In short: as §1
# [20] = target: Neu5Ac(a2-3)Gal(b1-3)[Fuc(a1-4)]GlcNAc(b1-3)Gal(b1-4)[Fuc(a1-3)]GlcNAc
# In short: as §1
# [21] = target: Neu5Ac(a2-3)Gal(b1-3)[Neu5Ac(a2-3)Gal(b1-4)]GlcNAc
# In short: as §1
# [22] = target: Neu5Ac(a2-3)Gal(b1-3)[Neu5Ac(a2-6)]GalNAc
# In short: as §1
# Neu5Ac(a2-3)Gal(b1-4)Glc = target: Neu5Ac(a2-3)Gal(b1-4)Glc
# In short: as §1
# [23] = target: Neu5Ac(a2-3)Gal(b1-4)GlcNAc
# In short: as §1
# [24] = target: Neu5Ac(a2-3)Gal(b1-4)GlcNAc(b1-2)Man(a1-3)[GlcNAc(b1-2)Man(b1-4)GlcNAc(b1-2)Man(a1-6)]Man(b1-4)GlcNAc(b1-4)GlcNAc
# In short: as §1
# [25] = target: Neu5Ac(a2-3)Gal(b1-4)GlcNAc(b1-2)Man(a1-3)[Neu5Ac(a2-6)Gal(b1-4)GlcNAc(b1-2)Man(a1-6)]Man(b1-4)GlcNAc(b1-4)GlcNAc
# In short: as §1
# [26] = target: Neu5Ac(a2-3)Gal(b1-4)GlcNAc(b1-3)Gal
# In short: as §1
# [27] = target: Neu5Ac(a2-3)Gal(b1-4)GlcNAc(b1-3)Gal(b1-3)GlcNAc
# In short: as §1
# [28] = target: Neu5Ac(a2-3)Gal(b1-4)GlcNAc(b1-3)Gal(b1-4)GlcNAc
# In short: as §1
# [29] = target: Neu5Ac(a2-3)Gal(b1-4)GlcNAc(b1-3)Gal(b1-4)GlcNAc(b1-3)Gal(b1-4)GlcNAc
# In short: as §1
# [30] = target: Neu5Ac(a2-3)Gal(b1-4)GlcNAc(b1-3)Gal(b1-4)[Fuc(a1-3)]GlcNAc
# In short: as §1
# [31] = target: Neu5Ac(a2-3)Gal(b1-4)GlcNAc(b1-3)GalNAc
# In short: as §1
# [32] = target: Neu5Ac(a2-3)Gal(b1-4)GlcNAc(b1-6)[Gal(b1-3)]GalNAc
# In short: as §1
# [33] = target: Neu5Ac(a2-3)Gal(b1-4)GlcNAc(b1-6)[Neu5Ac(a2-3)Gal(b1-3)]GalNAc
# In short: as §1
# [34] = target: Neu5Ac(a2-3)Gal(b1-4)GlcNAc6S
# In short: as §1
# [35] = target: Neu5Ac(a2-3)Gal(b1-4)[Fuc(a1-3)]GlcNAc
# In short: as §1
# [36] = target: Neu5Ac(a2-3)Gal(b1-4)[Fuc(a1-3)]GlcNAc(b1-3)Gal
# In short: as §1
# [37] = target: Neu5Ac(a2-3)Gal(b1-4)[Fuc(a1-3)]GlcNAc(b1-3)Gal(b1-4)GlcNAc
# In short: as §1
# [38] = target: Neu5Ac(a2-3)Gal(b1-4)[Fuc(a1-3)]GlcNAc(b1-3)Gal(b1-4)[Fuc(a1-3)]GlcNAc(b1-3)Gal(b1-4)[Fuc(a1-3)]GlcNAc
# In short: as §1
# [39] = target: Neu5Ac(a2-3)Gal(b1-4)[Fuc(a1-3)]GlcNAc(b1-3)GalNAc
# In short: as §1
# [40] = target: Neu5Ac(a2-3)Gal(b1-4)[Fuc(a1-3)]GlcNAc(b1-6)[Gal(b1-3)]GalNAc
# In short: as §1
binder,measurement,setting,value
B1,glycan array binding signal (z-score),[1],-0.507
same,glycan array binding signal (z-score),[2],1.04
same,glycan array binding signal (z-score),[3],-0.167
same,glycan array binding signal (z-score),Man(a1-3)[Man(a1-6)]Man,0.39
same,glycan array binding signal (z-score),[4],-0.501
same,glycan array binding signal (z-score),[5],-0.291
same,glycan array binding signal (z-score),[6],0.315
same,glycan array binding signal (z-score),[7],-0.082
same,glycan array binding signal (z-score),Man(a1-6)Man,0.042
same,glycan array binding signal (z-score),Man(b1-4)GlcNAc,-0.351
same,glycan array binding signal (z-score),Neu5Ac(a2-3)Gal,0.87
same,glycan array binding signal (z-score),[8],-0.262
same,glycan array binding signal (z-score),[9],-0.295
same,glycan array binding signal (z-score),[10],-0.395
same,glycan array binding signal (z-score),[11],0.003
same,glycan array binding signal (z-score),[12],-0.342
same,glycan array binding signal (z-score),[13],-0.336
same,glycan array binding signal (z-score),[14],-0.361
same,glycan array binding signal (z-score),[15],-0.581
same,glycan array binding signal (z-score),[16],-0.39
same,glycan array binding signal (z-score),[17],-0.237
same,glycan array binding signal (z-score),[18],0.924
same,glycan array binding signal (z-score),[19],-0.129
same,glycan array binding signal (z-score),[20],-0.289
same,glycan array binding signal (z-score),[21],-0.334
same,glycan array binding signal (z-score),[22],2.7
same,glycan array binding signal (z-score),Neu5Ac(a2-3)Gal(b1-4)Glc,-0.059
same,glycan array binding signal (z-score),[23],0.204
same,glycan array binding signal (z-score),[24],-0.276
same,glycan array binding signal (z-score),[25],-0.507
same,glycan array binding signal (z-score),[26],0.532
same,glycan array binding signal (z-score),[27],-0.041
same,glycan array binding signal (z-score),[28],-0.178
same,glycan array binding signal (z-score),[29],-0.479
same,glycan array binding signal (z-score),[30],-0.166
same,glycan array binding signal (z-score),[31],-0.477
same,glycan array binding signal (z-score),[32],3.13
same,glycan array binding signal (z-score),[33],-0.266
same,glycan array binding signal (z-score),[34],-0.38
same,glycan array binding signal (z-score),[35],-0.344
same,glycan array binding signal (z-score),[36],-0.059
same,glycan array binding signal (z-score),[37],0.045
same,glycan array binding signal (z-score),[38],-0.503
same,glycan array binding signal (z-score),[39],11.3
same,glycan array binding signal (z-score),[40],-0.092
